# Measurements from PubChem BioAssay AID1745853 (National Center for Advancing Translational Sciences (NCATS), 2022).
# The other results are listed elsewhere or left out. Shown are side measurements of this screen, not its main read-out; they come without a call.
# Experiments:
# Assay in all cases: Primary Screen for Target Class Profiling of Small Molecule Inhibitors of Methyltransferases
# [1] = biological target: Glycine N-methyltransferase (Homo sapiens) (UniProt Q14749); conditions: purified enzyme, MTase-Glo SAH luminescence; measured here: GNMT inhibition; at 40 µM; stronger effect = lower value
# Outline: (§1)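 Each enzyme was assayed with SAM and its substrate. SAH formation detected by MTase-Glo luminescence; single-point 40 uM screen[…].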
# [2] = biological target: Guanidinoacetate N-methyltransferase (Homo sapiens) (UniProt Q14353); conditions: purified enzyme, MTase-Glo SAH luminescence; measured here: GAMT inhibition; at 40 µM; stronger effect = lower value
# Outline: as §1
# [3] = biological target: Histamine N-methyltransferase (Homo sapiens) (UniProt P50135); conditions: purified enzyme, MTase-Glo SAH luminescence; measured here: HNMT inhibition; at 40 µM; stronger effect = lower value
# Outline: as §1
# [4] = biological target: Nicotinamide N-methyltransferase (Homo sapiens) (UniProt P40261); conditions: purified enzyme, MTase-Glo SAH luminescence; measured here: NNMT inhibition; at 40 µM; stronger effect = lower value
# Outline: as §1
# [5] = biological target: Phenylethanolamine N-methyltransferase (Homo sapiens) (UniProt P11086); conditions: purified enzyme, MTase-Glo SAH luminescence; measured here: PNMT inhibition; at 40 µM; stronger effect = lower value
# Outline: as §1
# % is scaled to controls: 0 for no effect and ±100 for the full control effect.
Compound,"activity change, negative = inhibition [1]","activity change, negative = inhibition [2]","activity change, negative = inhibition [3]","activity change, negative = inhibition [4]","activity change, negative = inhibition [5]"
Oc1ccc(NCCN2CCCC2)cc1,-77.4%,-65.3%,-43.4%,-26.7%,-68.4%
CN1C(=O)c2cc(C(=O)NCCCc3ccccc3)nn2CC1(C)C(=O)NC1CCCCC1 (configuration not stated),1.67%,0%,5.45%,5.79%,2.23%
CCOC(=O)c1cc2n(n1)CC(C)(C(=O)NCc1ccccc1OC)N(c1cccc(F)c1)C2=O (configuration not stated),8.32%,0.064%,11.7%,8.08%,8.42%
COCCNC(=O)C1CC(c2ccccc2)CN(C(=O)NCc2ccccc2)C1 (configuration not stated),1.52%,1.31%,3.64%,-3.51%,2.06%
CC(=O)c1ccc(O[C@@H]2OC[C@@H](O)[C@H](O)[C@H]2O[C@]2(CO)O[C@H](CO)[C@@H](O)[C@@H]2O)c(O)c1,7.13%,4.57%,9.27%,-5.63%,0.292%
CCCn1c(=O)c2cc(Cl)ccc2n2c(SCc3ccccc3F)nnc12,-18.7%,1.82%,7.95%,-7.13%,4.39%
O=C(NCc1ccc(Cl)cc1)c1ccc2cc[nH]c2n1,-13.6%,-9.73%,-5.43%,-19.4%,-22.5%
O=C(O)C1CN(C(=O)c2ccco2)CCN(C2CCOCC2)C1 (configuration not stated),-2.69%,-4.86%,-0.151%,-4.07%,-3.97%
Cn1cc(-c2[nH]c3cc(NC(=O)[C@H](N)C4CCCCC4)cc4c3c2C=NNC4=O)cn1,-2.07%,12%,2.69%,-9.88%,3.74%
O=C(NCc1ccc2c(c1)OCO2)C1NCCc2[nH]cnc21 (configuration not stated),1.68%,1.67%,-0.565%,-1.75%,16%
O=C(c1cccs1)N1CCN2CCS(=O)(=O)N(C3CC3)C(=O)C2C1 (configuration not stated),-5.13%,-5.58%,-2.34%,-15.1%,-4.17%
COc1cccc(CN2C(=O)c3nc4ccccc4n3CC2(C)C(=O)NC2CCCC2)c1 (configuration not stated),0.021%,3.97%,0.138%,-3.74%,-1.94%
CN1CCc2cc(Cl)c(O)cc2[C@@H](c2cccc3c2OCC3)C1,2.74%,6.91%,-5.27%,-12.7%,-1.25%
O=c1[nH]nc(OCCCc2ccc(Cl)cc2)c(NCc2cccnc2)c1Br,-8.5%,1.89%,-10.9%,-42.5%,-5.64%
CC1(C)CNc2cc(NC(=O)c3cccnc3NCc3ccncc3)ccc21,-7.01%,-4.25%,-48.5%,-18.1%,-6.73%
CCCCS(=O)(=O)NC(Cc1ccc(OCCCCC2CCNCC2)cc1)C(=O)O (configuration not stated),3.14%,,-5.15%,,
CCOC(=O)c1cccc(Nc2cc(C)nc3ccc(C)cc23)c1,-1.66%,0%,-77.5%,-1.34%,-0.227%
COc1ccc(C(=O)N2CCC(O)(CO)CC2)c(OC)c1OC,-2.46%,1.02%,0.818%,2.27%,1.79%
Cc1ccc(Cn2c(=O)c3ccccc3n3c(CCC(=O)NCCCN4CCOCC4)nnc23)cc1,-3.55%,0%,-3.46%,7.63%,-7.03%
Cc1noc(-c2ccncc2)c1C(=O)NCCCCc1ccccc1,-6.19%,-2.71%,0.612%,-8.04%,-3.15%
C=Cc1ccc(Cn2nc3n(CCC)c(=O)c4ccc(C(=O)NC5CCCCC5)cc4n3c2=O)cc1,1.73%,0%,7.71%,-1.54%,-7.29%

Compound,"activity change, negative = inhibition [1]","activity change, negative = inhibition [2]","activity change, negative = inhibition [3]","activity change, negative = inhibition [4]","activity change, negative = inhibition [5]"
CN(CC(=O)N1CCN(Cc2ccccc2)CC1)S(=O)(=O)c1ccc2[nH]c3c(c2c1)CCCC3,-1.71%,0%,-0.766%,0.698%,1.75%
Cn1c(=O)n(C)c2cc(S(=O)(=O)Nc3ccc(F)c(F)c3)ccc21,-4.54%,4.33%,3.38%,1.96%,-3.24%
CC1CCCC(NC(=O)C2(C)Cn3c(cc4occc43)C(=O)N2Cc2ccccc2)C1C (configuration not stated),0.694%,4.52%,-3.59%,-5.01%,-3.93%
CCCn1c(=O)c2ccc(C(=O)NCC(C)C)cc2n2c(=O)[nH]nc12,-1.71%,0%,4.08%,-1.43%,-4.87%
O=C(NC1CCCCC1)N[C@H]1C[C@H]2C(=O)N3CCC[C@@H]3C(=O)N2C1,-3%,-4.93%,-1.88%,-3.37%,-0.599%
COc1ccc2cc(OCC3(C(=O)O)CN(C(=O)c4ccc(F)cc4)C3)ccc2c1,-42.8%,-4.83%,7.85%,-24%,-1.21%
O=C1Cc2c([nH]c3ccc(Br)cc23)-c2ncccc2N1,-8.59%,-15.5%,1.5%,-24.8%,-61%
COCCN1C(=O)c2ccc(-c3ccco3)n2CC1(C)C(=O)NC1CCCCCCC1 (configuration not stated),-12.6%,-1.64%,-5.57%,-17.9%,-8.75%
CC1(C(=O)NC2CCCCC2)Cn2c(ccc2-c2ccco2)C(=O)N1Cc1cccc(Cl)c1 (configuration not stated),-13.2%,0.729%,-11.9%,-21.9%,-9.79%
Cn1c(CN2CCOCC2)nnc1C1CCCN(C(=O)c2cc[nH]c2)C1 (configuration not stated),-0.684%,0.977%,1.22%,-1.6%,2.82%
CC(C)NC(=O)N(C1CCOCC1)C1CNC1,-6.02%,-5.57%,-1.76%,-6.6%,-1.25%
COc1ccc(CCNC(=O)C(C)n2ccc3cc(S(=O)(=O)N4CCCC4)ccc32)c(OC)c1 (configuration not stated),2.72%,4.47%,-5.58%,-6.32%,-1.02%
CCOc1ccc(CN2C(=O)c3cc(C(C)(C)C)nn3CC2(C)C(=O)NCc2ccccc2)cc1 (configuration not stated),7.2%,0.504%,7.41%,9.12%,0.741%
CCN1CC2(CCN(Cc3cc4c(cc3OC)OCCCO4)CC2)OC1=O,-0.997%,-2.94%,-1.37%,-6.35%,-4.38%
COC[C@H]1NC(=O)CC[C@H]1C(=O)NCCCc1ccccc1,1.56%,2.3%,-0.941%,1.65%,-4.11%
Cc1ccc(F)c(OC2(C(=O)O)CCN(Cc3cccc(C)n3)CC2)c1,-4.82%,-6.31%,-2.97%,-9.32%,-4.71%
CCCN1C(=O)c2cc3c(OC)ccc(OC)c3n2CC1(C)C(=O)NC1CCCCC1C (configuration not stated),-16.5%,-1.94%,5.7%,-2.02%,-13.6%
CC1(C(=O)NC2CCCCC2)Cn2c(cc3sccc32)C(=O)N1C1CCCC1 (configuration not stated),2.81%,5.49%,-4.42%,3.73%,-0.568%
CN1CCN(Cc2ccc(-c3cnc4c(OCc5ccccc5)nccn34)cc2)CC1,-12.2%,-6.31%,-30.3%,-18.2%,-11.3%
COC(=O)N1CCC(n2ncc3c(N4CCOCC4)nc(-c4ccc(NC(=O)NC5CC5)cc4)nc32)CC1,-15.8%,10.9%,-7.9%,-14.2%,1.59%
CCOc1ccc(CN2C(=O)c3cc4occc4n3CC2(C)C(=O)NC2CCCC(C)C2C)cc1 (configuration not stated),-5.85%,2.41%,2.54%,-9.63%,-3.44%

Compound,"activity change, negative = inhibition [1]","activity change, negative = inhibition [2]","activity change, negative = inhibition [3]","activity change, negative = inhibition [4]","activity change, negative = inhibition [5]"
COc1ccc2cc3n(c2c1)CC(C)(C(=O)NC1CCCCC1)N(Cc1ccccc1)C3=O (configuration not stated),-0.423%,0%,2.14%,0.615%,1.28%
COc1cccc2sc(NC(=O)c3ccc4c(c3)OCCN(C3CCC3)C4)nc12,-21.9%,-0.439%,-6.58%,-2.33%,7.08%
COc1ccc(CN2C(=O)c3cc4sccc4n3CC2(C)C(=O)NC2CCCCCC2)cc1 (configuration not stated),0.862%,3.67%,1.1%,-9.66%,-0.877%
CCCN1C(=O)c2cc(C(=O)N3CCCCC3)nn2CC1(C)C(=O)NC1CCCC1 (configuration not stated),3.81%,0%,4.68%,5.22%,6.48%
CN1CCCC(CN(C)C(=O)c2cc(-c3cnn(CCO)c3)nc3ccccc23)C1 (configuration not stated),-5.02%,-4.29%,-18.9%,-7.14%,5.28%
CC(C)(C)C1CCN(C(=O)n2ncc(C(O)(c3ccccc3)c3ccccc3)n2)CC1,2.37%,-3.93%,2.9%,-28.6%,-4.92%
CC1(C(=O)NC2CCCCCC2)Cn2c(cc3sccc32)C(=O)N1Cc1ccccn1 (configuration not stated),1.95%,0%,9.45%,-5.79%,4.53%
Cc1ccc(CN2CCC3OCCN(Cc4ccccc4)C(=O)C3C2)o1 (configuration not stated),-6.87%,-5%,-2.79%,-14.8%,-9.77%
O=C(CC[C@H]1NC(=O)c2ccccc2NC1=O)Nc1nc(-c2cccnc2)cs1,-9.03%,-1.33%,0.279%,-2.61%,-0.111%
COCCC(=O)N1CC(c2nc(CCOc3cccc(C)c3)no2)C1,0.653%,-0.435%,1.79%,0.004%,-1.34%
COc1cc(C)c(C(=O)NC2C(C)OC(OC3CCC(C)C4C3C=C(C)C3/C(C)=C\CC/C(C)=C/C5(C)C=C(C(=O)O)C(C)CC56OC(=O)/C(=C(\O)C34C)C6=O)C(O)C2(C)O)c(O)c1 (configuration not stated),0%,6.15%,6.31%,-9.9%,2.21%
Cc1ccccc1CN1C(=O)c2ccc(-c3ccco3)n2CC1(C)C(=O)NC1CCCCCC1 (configuration not stated),2.17%,0.392%,3.61%,3.85%,1.53%
CCCN1C(=O)c2c(C(=O)Nc3cccc(Cl)c3C)ncn2CC1(C)C(=O)NCc1ccc(C)cc1 (configuration not stated),-1.58%,0%,6.74%,2%,2.65%
CN1C(=O)c2cc(NC(=O)c3ccc(Cl)cc3)ccc2N2CCN=C12,-3.53%,4.39%,4.65%,7.15%,-1%
Cc1ccc(NC(=O)Cn2nc3n(C(C)C)c(=O)c4ccc(C(=O)NC(C)C)cc4n3c2=O)c(C)c1,7.49%,4.97%,10.6%,2.87%,5.58%
CN1CC(=O)N(c2cccnc2)Cc2c1ncnc2N1CCN(c2ncccn2)CC1,-4.95%,-8.68%,-6.2%,-16.3%,-6.47%
CCOc1ccccc1CNC(=O)c1cc2n(n1)CC(C)(C(=O)NCc1ccc(F)cc1)N(C)C2=O (configuration not stated),-2.55%,0%,-5.18%,-6.33%,-6.42%
CC(C)NC(=O)c1ccc2c(=O)n(C(C)C)c3nn(CC(=O)N(C)c4ccc(F)cc4)c(=O)n3c2c1,5.52%,0%,3.86%,-0.946%,4.67%
CCCOCC(=O)N1CCc2onc(-c3ccc(C(F)(F)F)cc3)c2C1,-9.47%,-6%,-3.6%,-13.4%,-10.6%
